# Source: PubChem BioAssay (NCATS)
# Results filed as inconclusive are left out. Calls follow the shape of the dose curve; as a rule, active = well fitted curve in the direction sought with a large enough effect; inconclusive = small, poorly fitted or top-dose-only effect, or another doubt; inactive = no such curve, though single readings can be large; an effect the other way counts as inactive or inconclusive. A structure can be active in one record and inactive in another. Some entries of the source have several records that differ or are many. The other results are left out here. The source may hold further records. Results that share an entry are repeats (runs, samples, wells, individuals or studies). Brackets tell where a record comes from. Letters hold for one entry only.
# Columns and labels:
# [1] = target: Parathyroid hormone/parathyroid hormone-related peptide receptor (Homo sapiens) (UniProt Q03431); experiment: qHTS for PTHR1 Agonists: Optimization Screen against the NCGC LOPAC library (AID 1347079);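 also: GloSensor cAMP luminescence in HEK-293 GP2 cells expressing human PTHR1 with IBMX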
# UniProt Q03431, sequence (Q03431 whole entry, looked up): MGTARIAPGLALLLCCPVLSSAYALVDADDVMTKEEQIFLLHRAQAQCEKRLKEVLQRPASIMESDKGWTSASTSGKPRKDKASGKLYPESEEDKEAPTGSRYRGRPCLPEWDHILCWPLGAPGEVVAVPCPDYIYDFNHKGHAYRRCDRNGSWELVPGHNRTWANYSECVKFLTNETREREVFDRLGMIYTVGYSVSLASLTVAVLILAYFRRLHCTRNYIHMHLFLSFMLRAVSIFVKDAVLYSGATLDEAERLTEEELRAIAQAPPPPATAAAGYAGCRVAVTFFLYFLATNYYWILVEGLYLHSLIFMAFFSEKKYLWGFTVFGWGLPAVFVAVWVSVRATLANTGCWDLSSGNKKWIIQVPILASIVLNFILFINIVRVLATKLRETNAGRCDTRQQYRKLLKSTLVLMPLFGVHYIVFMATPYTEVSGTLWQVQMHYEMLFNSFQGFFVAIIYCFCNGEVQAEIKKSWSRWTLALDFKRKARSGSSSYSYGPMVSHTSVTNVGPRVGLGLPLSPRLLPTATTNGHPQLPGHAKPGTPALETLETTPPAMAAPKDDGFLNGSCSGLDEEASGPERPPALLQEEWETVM
# Summary of the method: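 Compounds were tested across a qHTS titration. PTHR1-expressing GP2 cells report cAMP rises via GloSensor luminescence after 1 hr compound exposure at 37C with IBMX present.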
# [2] = target: N-terminal Xaa-Pro-Lys N-methyltransferase 1 (Homo sapiens) (UniProt Q9BV86); experiment: qHTS Assay for Inhibitors of N-terminal methyltransferase 1 (NTMT1): LOPAC validation of the NTMT1 SAHH-coupled ThioGlo3 Assay (AID 1347143);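 also: SAH from peptide methylation measured as thiol fluorescence via SAHH coupling and ThioGlo3; nearly all actives have a fitted effect of over 70% in size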
# UniProt Q9BV86, sequence (Q9BV86 whole entry, looked up): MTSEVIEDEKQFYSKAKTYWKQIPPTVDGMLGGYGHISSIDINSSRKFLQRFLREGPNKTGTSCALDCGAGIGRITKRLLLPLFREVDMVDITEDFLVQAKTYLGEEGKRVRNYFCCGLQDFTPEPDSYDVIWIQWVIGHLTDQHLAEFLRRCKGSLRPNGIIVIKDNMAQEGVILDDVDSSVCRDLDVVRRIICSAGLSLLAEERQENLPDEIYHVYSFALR
# Summary of the method: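 Recombinant human NTMT1 (125nM) was pre-incubated 1 min at room temperature with compounds over a concentration range, then a mix of 100uM SAM, 10uM SAHH and 15uM ThioGlo3 (concentrations in added reagent) was added. ThioGlo3 fluorescence (ex 340/em 450nm) after 30 min was normalized to the initial reading.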
# [3] = target: Rap guanine nucleotide exchange factor 3 (Homo sapiens) (UniProt O95398); experiment: Confirmatory qHTS for agonist of cAMP-regulated guanine nucleotide exchange factor 3 (EPAC1) (AID 1645881); also: nearly all actives have a fitted effect of over 75% in size
# UniProt O95398, sequence (O95398 whole entry, looked up): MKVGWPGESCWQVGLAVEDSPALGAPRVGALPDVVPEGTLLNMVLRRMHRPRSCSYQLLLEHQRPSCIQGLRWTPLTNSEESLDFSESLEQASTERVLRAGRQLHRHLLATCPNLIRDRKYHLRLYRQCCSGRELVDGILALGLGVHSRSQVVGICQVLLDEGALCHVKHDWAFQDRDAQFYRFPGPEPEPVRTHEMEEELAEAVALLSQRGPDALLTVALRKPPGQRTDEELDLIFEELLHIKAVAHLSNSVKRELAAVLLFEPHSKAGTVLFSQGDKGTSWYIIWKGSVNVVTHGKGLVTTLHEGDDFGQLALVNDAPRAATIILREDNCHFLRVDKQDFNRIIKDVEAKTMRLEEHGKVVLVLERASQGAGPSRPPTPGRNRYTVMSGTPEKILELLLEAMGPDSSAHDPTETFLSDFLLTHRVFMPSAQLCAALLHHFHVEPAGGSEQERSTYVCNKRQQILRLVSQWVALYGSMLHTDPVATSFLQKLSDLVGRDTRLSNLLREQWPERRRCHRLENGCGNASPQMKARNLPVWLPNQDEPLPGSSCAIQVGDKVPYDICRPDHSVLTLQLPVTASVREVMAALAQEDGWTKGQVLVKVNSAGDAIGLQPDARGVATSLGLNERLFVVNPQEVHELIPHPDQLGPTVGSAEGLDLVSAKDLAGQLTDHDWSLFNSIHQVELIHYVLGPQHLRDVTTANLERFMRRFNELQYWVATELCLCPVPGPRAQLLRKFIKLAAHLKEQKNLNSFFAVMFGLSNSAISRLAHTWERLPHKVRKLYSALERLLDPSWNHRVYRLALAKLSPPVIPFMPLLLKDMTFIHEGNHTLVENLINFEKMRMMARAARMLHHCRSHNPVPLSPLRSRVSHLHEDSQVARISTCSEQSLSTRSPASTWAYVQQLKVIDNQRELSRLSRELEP
# [4] = target: Rap guanine nucleotide exchange factor 4 (Homo sapiens) (UniProt Q8WZA2); experiment: Confirmatory qHTS for agonist of cAMP-regulated guanine nucleotide exchange factor 4 (EPAC2) (AID 1645884);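 also: nucleotide exchange releases bodipy-GDP from Rap1 and this lowers its fluorescence; nearly all actives have a fitted effect of over 65% in size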
# UniProt Q8WZA2, sequence (Q8WZA2 whole entry, looked up): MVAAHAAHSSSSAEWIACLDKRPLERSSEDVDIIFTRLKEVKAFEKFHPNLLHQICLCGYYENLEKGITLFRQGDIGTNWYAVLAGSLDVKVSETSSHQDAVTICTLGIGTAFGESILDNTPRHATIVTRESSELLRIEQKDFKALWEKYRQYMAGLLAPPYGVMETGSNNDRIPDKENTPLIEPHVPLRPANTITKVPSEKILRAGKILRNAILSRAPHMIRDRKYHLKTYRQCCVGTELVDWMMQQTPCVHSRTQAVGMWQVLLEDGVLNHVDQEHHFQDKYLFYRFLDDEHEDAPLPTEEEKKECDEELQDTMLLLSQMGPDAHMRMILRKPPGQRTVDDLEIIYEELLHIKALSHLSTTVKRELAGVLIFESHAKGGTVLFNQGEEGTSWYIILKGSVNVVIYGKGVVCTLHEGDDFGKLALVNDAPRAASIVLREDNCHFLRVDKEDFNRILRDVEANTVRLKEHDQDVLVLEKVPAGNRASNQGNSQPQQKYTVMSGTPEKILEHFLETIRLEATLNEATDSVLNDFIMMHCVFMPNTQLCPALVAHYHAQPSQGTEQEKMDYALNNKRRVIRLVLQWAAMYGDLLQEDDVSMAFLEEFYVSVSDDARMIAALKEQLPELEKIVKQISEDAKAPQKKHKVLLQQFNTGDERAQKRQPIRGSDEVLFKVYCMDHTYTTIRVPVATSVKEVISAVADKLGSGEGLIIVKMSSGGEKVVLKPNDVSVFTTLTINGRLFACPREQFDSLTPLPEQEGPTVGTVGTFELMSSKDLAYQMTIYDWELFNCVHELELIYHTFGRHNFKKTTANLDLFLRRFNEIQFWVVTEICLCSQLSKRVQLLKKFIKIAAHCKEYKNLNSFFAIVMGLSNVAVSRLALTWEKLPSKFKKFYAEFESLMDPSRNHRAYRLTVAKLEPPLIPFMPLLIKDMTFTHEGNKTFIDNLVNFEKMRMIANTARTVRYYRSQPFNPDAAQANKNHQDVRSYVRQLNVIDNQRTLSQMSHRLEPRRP
# Potency is read from the fitted curve at half-maximal effect.
smiles,measurement,setting,value
CC(C)NC[C@H](O)c1ccc(O)c(O)c1,Potency,[1],active: 67 nM [sample A] and inactive [sample B]
CC(C)(C)[C@]1(O)CCN2C[C@H]3c4ccccc4CCc4cccc(c43)[C@@H]2C1,Potency,[2],active: 50.1 µM [sample A] and inactive [sample B]
Cc1cc2nc3c(=O)[nH]c(=O)nc-3n(C[C@H](O)[C@H](O)[C@H](O)CO)c2cc1C,Potency,[3],active: 63 µM [sample A] and active: 25.1 µM [sample B] and inactive [sample C]
same,Potency,[4],inactive [sample A] and inactive [sample B] and active: 37 µM [sample C]
